# The supplement of paper PMC8728848
# This is one part of the list.
# B1: CvGal2 (Crassostrea virginica) (protein)
# chain: MGSSHHHHHHSSGLVPRGSHMRIREAGKRKDTTKVYQIPDGLFPGQQVMLRGRVPWGSKSFSINFSATPRMGEGDILFHLNPRPSEGVCIRNALLNGSWGAEEKWQPYFPFDDGRSFSVKIEVTNDAFRTFVNGRPFVDFLHRTDFRAGKYLTLREGAEYYDVIFQSKPNIPLTTAIHNGMRIGKTIRIRGMCTAQDGFAINFNDNRNNIYFHFNARPAQRTVVRNSYFGSWGNEETAISKEFPFYPFLYFYASFVCMEDKFAVYVNDEHFIDFAHRGNPNNISVLQIKGSVNVLDTECLEPMGEDAMTEVDSGLENGDLFVLNGLMTERGKTFAVNFLNGFTENDDIALHFNPRKSTGEVVLNSRYGGAWQSEEKVALPGVFWSNRPLQVKVETKRNKFKIYVNGVDLAKYKIRGNVEDVHAVQVKGDVFLLETLLLKRLMKPVWERLTGGIRPGTWVTLQGTPKKNWQQFVVNFALDDTLDGDIAFHFNVRRGARQVVRNHRQSGAWGREETVTPFFAFDSEATFEIVFFVKEEKFLIYFNGKLFFEFVHRVPVERITHIYMDGDCNFYEPEVVI
# Tests used:
# Assay in all cases: glycan array binding signal (z-score within array); higher = stronger binding
# Details in all cases: glycan notation: IUPAC condensed, linker removed
# [1] = target: Fuc(a1-2)Gal6S(b1-3)GlcNAc
# Summary of the method: (§1)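 Arrays were curated from the Consortium for Functional Glycomics database, 3228 in total, and kept only where the protein sequence was available. Binding is expressed as a within-array Z-score. This score was averaged across arrays of the same protein sequence at different concentrations or buffers and across linkers, and negative values can be read as non-binding.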
# [2] = target: Fuc(a1-2)Gal6S(b1-3)GlcNAc6S
# Summary of the method: as §1
# Fuc(a1-2)Gal6S(b1-4)Glc = target: Fuc(a1-2)Gal6S(b1-4)Glc
# Summary of the method: as §1
# [3] = target: Fuc(a1-2)Gal6S(b1-4)Glc6S
# Summary of the method: as §1
# Fuc(a1-2)[Gal(a1-3)]Gal = target: Fuc(a1-2)[Gal(a1-3)]Gal
# Summary of the method: as §1
# [4] = target: Fuc(a1-2)[Gal(a1-3)]Gal(b1-3)GalNAc
# Summary of the method: as §1
# [5] = target: Fuc(a1-2)[Gal(a1-3)]Gal(b1-3)GalNAc(b1-3)Gal(a1-4)Gal(b1-4)Glc
# Summary of the method: as §1
# [6] = target: Fuc(a1-2)[Gal(a1-3)]Gal(b1-3)GlcNAc
# Summary of the method: as §1
# [7] = target: Fuc(a1-2)[Gal(a1-3)]Gal(b1-3)GlcNAc(b1-2)Man(a1-3)[Fuc(a1-2)[Gal(a1-3)]Gal(b1-3)GlcNAc(b1-2)Man(a1-6)]Man(b1-4)GlcNAc(b1-4)GlcNAc
# Summary of the method: as §1
# [8] = target: Fuc(a1-2)[Gal(a1-3)]Gal(b1-3)GlcNAc(b1-2)Man(a1-3)[Fuc(a1-2)[Gal(a1-3)]Gal(b1-3)GlcNAc(b1-2)Man(a1-6)]Man(b1-4)GlcNAc(b1-4)[Fuc(a1-6)]GlcNAc
# Summary of the method: as §1
# [9] = target: Fuc(a1-2)[Gal(a1-3)]Gal(b1-3)GlcNAc(b1-3)GalNAc
# Summary of the method: as §1
# [10] = target: Fuc(a1-2)[Gal(a1-3)]Gal(b1-3)GlcNAc(b1-6)GalNAc
# Summary of the method: as §1
# [11] = target: Fuc(a1-2)[Gal(a1-3)]Gal(b1-4)Glc
# Summary of the method: as §1
# [12] = target: Fuc(a1-2)[Gal(a1-3)]Gal(b1-4)GlcNAc
# Summary of the method: as §1
# [13] = target: Fuc(a1-2)[Gal(a1-3)]Gal(b1-4)GlcNAc(b1-2)Man
# Summary of the method: as §1
# [14] = target: Fuc(a1-2)[Gal(a1-3)]Gal(b1-4)GlcNAc(b1-2)Man(a1-3)[Fuc(a1-2)[Gal(a1-3)]Gal(b1-4)GlcNAc(b1-2)Man(a1-6)]Man(b1-4)GlcNAc(b1-4)GlcNAc
# Summary of the method: as §1
# [15] = target: Fuc(a1-2)[Gal(a1-3)]Gal(b1-4)GlcNAc(b1-2)Man(a1-3)[Fuc(a1-2)[Gal(a1-3)]Gal(b1-4)GlcNAc(b1-2)Man(a1-6)]Man(b1-4)GlcNAc(b1-4)[Fuc(a1-6)]GlcNAc
# Summary of the method: as §1
# [16] = target: Fuc(a1-2)[Gal(a1-3)]Gal(b1-4)GlcNAc(b1-3)GalNAc
# Summary of the method: as §1
# [17] = target: Fuc(a1-2)[Gal(a1-3)]Gal(b1-4)GlcNAc(b1-3)[Fuc(a1-2)[Gal(a1-3)]Gal(b1-4)GlcNAc(b1-6)]GalNAc
# Summary of the method: as §1
# [18] = target: Fuc(a1-2)[Gal(a1-3)]Gal(b1-4)GlcNAc(b1-6)GalNAc
# Summary of the method: as §1
# [19] = target: Fuc(a1-2)[Gal(a1-3)]Gal(b1-4)[Fuc(a1-3)]Glc
# Summary of the method: as §1
# [20] = target: Fuc(a1-2)[Gal(a1-3)]Gal(b1-4)[Fuc(a1-3)]GlcNAc
# Summary of the method: as §1
# [21] = target: Fuc(a1-2)[Gal(a1-3)]Gal(b1-4)[Fuc(a1-3)]GlcNAc(b1-3)GalNAc
# Summary of the method: as §1
# [22] = target: Fuc(a1-2)[Gal(a1-4)]Gal(b1-4)GlcNAc
# Summary of the method: as §1
# [23] = target: Fuc(a1-2)[GalNAc(a1-3)]Gal
# Summary of the method: as §1
# [24] = target: Fuc(a1-2)[GalNAc(a1-3)]Gal(b1-3)GalNAc(a1-3)[Fuc(a1-2)]Gal(b1-4)GlcNAc
# Summary of the method: as §1
# [25] = target: Fuc(a1-2)[GalNAc(a1-3)]Gal(b1-3)GalNAc(b1-3)Gal(a1-4)Gal(b1-4)Glc
# Summary of the method: as §1
# [26] = target: Fuc(a1-2)[GalNAc(a1-3)]Gal(b1-3)GlcNAc
# Summary of the method: as §1
# [27] = target: Fuc(a1-2)[GalNAc(a1-3)]Gal(b1-3)GlcNAc(b1-2)Man(a1-3)[Fuc(a1-2)[GalNAc(a1-3)]Gal(b1-3)GlcNAc(b1-2)Man(a1-6)]Man(b1-4)GlcNAc(b1-4)GlcNAc
# Summary of the method: as §1
# [28] = target: Fuc(a1-2)[GalNAc(a1-3)]Gal(b1-3)GlcNAc(b1-2)Man(a1-3)[Fuc(a1-2)[GalNAc(a1-3)]Gal(b1-3)GlcNAc(b1-2)Man(a1-6)]Man(b1-4)GlcNAc(b1-4)[Fuc(a1-6)]GlcNAc
# Summary of the method: as §1
# [29] = target: Fuc(a1-2)[GalNAc(a1-3)]Gal(b1-3)GlcNAc(b1-3)GalNAc
# Summary of the method: as §1
# [30] = target: Fuc(a1-2)[GalNAc(a1-3)]Gal(b1-3)GlcNAc(b1-6)GalNAc
# Summary of the method: as §1
# [31] = target: Fuc(a1-2)[GalNAc(a1-3)]Gal(b1-4)Glc
# Summary of the method: as §1
# [32] = target: Fuc(a1-2)[GalNAc(a1-3)]Gal(b1-4)GlcNAc
# Summary of the method: as §1
# [33] = target: Fuc(a1-2)[GalNAc(a1-3)]Gal(b1-4)GlcNAc(b1-2)Man
# Summary of the method: as §1
# [34] = target: Fuc(a1-2)[GalNAc(a1-3)]Gal(b1-4)GlcNAc(b1-2)Man(a1-3)[Fuc(a1-2)[GalNAc(a1-3)]Gal(b1-4)GlcNAc(b1-2)Man(a1-6)]Man(b1-4)GlcNAc(b1-4)GlcNAc
# Summary of the method: as §1
# [35] = target: Fuc(a1-2)[GalNAc(a1-3)]Gal(b1-4)GlcNAc(b1-2)Man(a1-3)[Fuc(a1-2)[GalNAc(a1-3)]Gal(b1-4)GlcNAc(b1-2)Man(a1-6)]Man(b1-4)GlcNAc(b1-4)[Fuc(a1-6)]GlcNAc
# Summary of the method: as §1
# [36] = target: Fuc(a1-2)[GalNAc(a1-3)]Gal(b1-4)GlcNAc(b1-3)Gal(b1-4)GlcNAc
# Summary of the method: as §1
# [37] = target: Fuc(a1-2)[GalNAc(a1-3)]Gal(b1-4)GlcNAc(b1-3)Gal(b1-4)GlcNAc(b1-3)Gal(b1-4)GlcNAc
# Summary of the method: as §1
# [38] = target: Fuc(a1-2)[GalNAc(a1-3)]Gal(b1-4)GlcNAc(b1-3)GalNAc
# Summary of the method: as §1
# [39] = target: Fuc(a1-2)[GalNAc(a1-3)]Gal(b1-4)GlcNAc(b1-3)[Fuc(a1-2)[GalNAc(a1-3)]Gal(b1-4)GlcNAc(b1-6)]GalNAc
# Summary of the method: as §1
# [40] = target: Fuc(a1-2)[GalNAc(a1-3)]Gal(b1-4)GlcNAc(b1-6)GalNAc
# Summary of the method: as §1
# [41] = target: Fuc(a1-2)[GalNAc(a1-3)]Gal(b1-4)[Fuc(a1-3)]GlcNAc
# Summary of the method: as §1
# [42] = target: Fuc(a1-2)[GalNAc(a1-3)]Gal(b1-4)[Fuc(a1-3)]GlcNAc(b1-3)GalNAc
# Summary of the method: as §1
# [43] = target: Fuc(a1-2)[GalNAc(a1-4)]Gal(b1-4)GlcNAc
# Summary of the method: as §1
binder,measurement,setting,value
B1,glycan array binding signal (z-score),[1],-0.331
same,glycan array binding signal (z-score),[2],-0.22
same,glycan array binding signal (z-score),Fuc(a1-2)Gal6S(b1-4)Glc,-0.327
same,glycan array binding signal (z-score),[3],-0.338
same,glycan array binding signal (z-score),Fuc(a1-2)[Gal(a1-3)]Gal,-0.318
same,glycan array binding signal (z-score),[4],0.513
same,glycan array binding signal (z-score),[5],0.133
same,glycan array binding signal (z-score),[6],2.36
same,glycan array binding signal (z-score),[7],5.23
same,glycan array binding signal (z-score),[8],1.59
same,glycan array binding signal (z-score),[9],2.86
same,glycan array binding signal (z-score),[10],3.09
same,glycan array binding signal (z-score),[11],4.03
same,glycan array binding signal (z-score),[12],2.16
same,glycan array binding signal (z-score),[13],0.432
same,glycan array binding signal (z-score),[14],7.14
same,glycan array binding signal (z-score),[15],3.4
same,glycan array binding signal (z-score),[16],0.056
same,glycan array binding signal (z-score),[17],1.54
same,glycan array binding signal (z-score),[18],-0.339
same,glycan array binding signal (z-score),[19],-0.332
same,glycan array binding signal (z-score),[20],-0.335
same,glycan array binding signal (z-score),[21],-0.328
same,glycan array binding signal (z-score),[22],-0.327
same,glycan array binding signal (z-score),[23],-0.04
same,glycan array binding signal (z-score),[24],1.57
same,glycan array binding signal (z-score),[25],2.72
same,glycan array binding signal (z-score),[26],2.53
same,glycan array binding signal (z-score),[27],4.12
same,glycan array binding signal (z-score),[28],-0.16
same,glycan array binding signal (z-score),[29],0.97
same,glycan array binding signal (z-score),[30],0.17
same,glycan array binding signal (z-score),[31],-0.075
same,glycan array binding signal (z-score),[32],0.484
same,glycan array binding signal (z-score),[33],2.71
same,glycan array binding signal (z-score),[34],2.63
same,glycan array binding signal (z-score),[35],3.72
same,glycan array binding signal (z-score),[36],3.77
same,glycan array binding signal (z-score),[37],4.33
same,glycan array binding signal (z-score),[38],0.693
same,glycan array binding signal (z-score),[39],6.77
same,glycan array binding signal (z-score),[40],1.45
same,glycan array binding signal (z-score),[41],-0.329
same,glycan array binding signal (z-score),[42],-0.333
same,glycan array binding signal (z-score),[43],-0.327
